Measured values: PubChem BioAssay AID1508623 (National Center for Advancing Translational Sciences (NCATS), 2021)
Among all 48,000 compounds or so, about 450 (0.94%) were called active. Not shown: some 19% with an inconclusive outcome. Calls come from the whole dose curve; as a rule, active = well fitted inhibition curve with a large enough effect; inconclusive = small, poorly fitted or top-dose-only effect; inactive = no such curve, though single readings can be large or run the other way. This is one part of the list.

Experiment: Primary qHTS for Identification of Small Molecule Inhibitors of Huntingtin Promoter Activity; note: nearly all actives have a fitted effect of over 50% in size
Conditions: HEK293 HTT promoter firefly luciferase reporter (activity 0% = vehicle and -100% = no light), 24 h; series mostly up to 57.5 µM; activity change, negative = inhibition: at the top concentration
How it was run: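 HEK293 luciferase promoter-reporter cells (2,500/well) plated 24 h, then compounds added at up to 57.5 uM final for 24 h at 37 °C. Firefly luminescence by Dual-Glo, normalized to vehicle (0%) and zero RLU (-100%).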

Activity change, negative = inhibition, inactive:
CCN(CCCNC(=O)c1c(C)oc2ncn(CC(C)C)c(=O)c12)Cc1ccccc1 9.98%
COc1ccc(N(Cc2cccs2)C(=O)COc2cccc(Cl)c2)cc1 -29.3%
Cc1ccc(Cl)cc1NC(=O)c1oc2c(c1C)-c1[nH]ncc1CC2 57.2%
Cn1c(=O)n(-c2ccc(F)c(Cl)c2)c(=O)c2sc3ccccc3c21 -7.29%
CCC1CCCCN1C(=O)c1ccc2c(c1)N(Cc1cccc(Cl)c1)C(=O)c1ccccc1S2(=O)=O (configuration not stated) -55.4%
CCOC(=O)c1cnc2c(Cl)cccc2c1NCCN1CCOCC1 -2.04%
CCOc1cccc2cc(-c3nc(-c4ccccc4C)no3)c(=O)oc12 45.5%
Cc1ccc(Oc2c(C(F)(F)F)oc3c(CN4CCCCC4)c(O)ccc3c2=O)cc1 -41.6%
Cc1cc(F)ccc1NC(=O)CCS(=O)(=O)c1ccc2c(c1)NC(=O)CO2 -5.85%
O=C(Nc1ccc(Cl)cc1)C1CCCN(S(=O)(=O)c2ccc3[nH]c(=O)ccc3c2)C1 (configuration not stated) -27.4%
CCOC(=O)c1ccccc1NC(=O)CSc1cn(CC(=O)N2CCCCC2)c2ccccc12 -0.878%
Cc1nc2c(-c3ccccc3)c(C)nn2c(C)c1CCC(=O)NC(C)c1ccccc1 (configuration not stated) -29%
COc1cc(Cl)cn2c(-c3cccc(NC4CNC4)n3)cnc12 -27.8%
COc1cccc(CNC(=O)C2CCCN(S(=O)(=O)c3ccc4c(ccn4C)c3)C2)c1 (configuration not stated) -20%
CCOC(=O)c1cccc(NC(=O)c2oc3c(c2C)-c2[nH]ncc2CC3)c1 42.2%
Nc1ccn([C@@H]2O[C@H](CO)[C@@H](O)C2O)c(=O)n1 (some centres not stated) -3.52%
CCc1ccccc1NS(=O)(=O)c1ccc2[nH]cc(C(=O)N3CCCCC3)c(=O)c2c1 1.82%
COc1cc(CN(C(=O)Nc2ccccc2)c2ccccn2)cc(OC)c1OC 0.975%
CC(C)CCNC(=O)c1cccc(Nc2nc3ccccc3n3nnnc23)c1 -11.7%
CCCC(=O)Nc1cc(C)c(O)c(-c2nc3ncccc3o2)c1 -10.5%
Cc1cc(NC(=O)c2ccc(Br)o2)cc(-c2nc3ccccc3o2)c1O -11.7%
CCCCNC(=O)C1CCCN(Cc2nc(-c3ccc(Cl)cc3)oc2C)C1 (configuration not stated) -0.283%
COc1ccc(NC(=O)C(NS(=O)(=O)c2ccc3c(c2)CCCC(=O)N3)C(C)C)c(OC)c1 (configuration not stated) -22%
Cc1cc(C)c(NC(=O)CSc2ccnc(=O)[nH]2)c(C)c1 -6.7%
Cc1c(Cl)cccc1NC(=O)CSc1ncnc2c1sc1ccccc12 7.35%
Cc1cccc(CNC(=O)c2oc3c(c2C)-c2nn(Cc4ccccc4Cl)cc2CC3)c1 -28.6%
Cc1cc(OCC(=O)Nc2ccc(-c3nc4cc(Cl)ccc4o3)cc2)cc(C)c1Cl 21.2%
